The source of these data is PubChem BioAssay AID1346428 (National Center for Advancing Translational Sciences (NCATS), 2018).

The whole screen tested about 48,000 compounds, of which about 1,200 (2.5%) were called active. About 2% were inconclusive and are not listed.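 Rule for the calls: active = activation of at least 60% and not above a set upper limit (about 1 call in 100 departs from these limits); inconclusive = activation of 40% to 60%, or above that upper limit; inactive = activation under 40%.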 The list shows a part of the results.

This test concerns the target Probable G-protein coupled receptor 32 (Homo sapiens) (UniProt O75388). Put plainly: qHTS for Agonists of Human Resolvin D1 Receptor DRV1. Note: 0% is about no effect. Particulars: CHO-K1 GPR32 beta-arrestin PathHunter luminescence, 90 min; at 76.9 µM; active compounds read high; zero percent set by DMSO-only wells. In outline: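 Step 1: seed CHO-K1 GPR32 beta-arrestin cells, 2,500/well, overnight at 37 °C. Step 2: add compounds, 90 min at 37 °C. Step 3: detection reagent, 1 h ambient, then luminescence.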
Chain of UniProt O75388 (O75388 whole entry, looked up): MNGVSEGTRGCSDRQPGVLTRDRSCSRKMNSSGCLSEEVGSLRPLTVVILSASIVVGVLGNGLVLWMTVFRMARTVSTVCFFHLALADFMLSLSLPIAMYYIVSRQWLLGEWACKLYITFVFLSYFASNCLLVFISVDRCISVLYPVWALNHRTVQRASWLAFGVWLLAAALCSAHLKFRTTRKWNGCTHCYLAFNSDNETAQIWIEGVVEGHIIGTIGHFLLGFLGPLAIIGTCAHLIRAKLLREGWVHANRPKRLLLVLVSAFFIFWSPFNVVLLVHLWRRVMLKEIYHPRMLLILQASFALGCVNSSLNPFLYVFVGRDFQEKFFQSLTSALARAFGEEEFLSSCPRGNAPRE
Background: Quantitative high-throughput screening tests each substance at several concentrations.
`O=C(Cc1cccs1)NC1CC(=O)N(c2ccc(Cl)cc2)C1` (configuration not stated): the activation is inactive: -6.57%.
`Cc1cccc(C(=O)OCc2cc(=O)n3nc(C4CCCCC4)sc3n2)c1`: the activation was inactive: -9.25%.
For `CCc1cccc(N2C(=O)CS(=O)(=O)C23C(=O)N(Cc2ccc(F)cc2)c2ccc(C)cc23)c1` (configuration not stated), the activation is inactive: -7.56%.
As to `O=C(NCCC1=CCCCC1)c1ccc2c(c1)N(Cc1ccccc1F)C(=O)c1ccccc1S2(=O)=O`, the activation is inactive: -7%.
Under `CCOc1ccc(N2CC(NC(=O)Cc3ccccc3)CC2=O)cc1` (configuration not stated) stands inactive: -26%.
The figure for `Cc1ccc(NC(=O)CN2C(=O)C(C)(C)c3ccccc32)cc1` is inactive: -5.88%.
The figure for `CC1=C(C(=O)Nc2ccc(C)cc2)C(c2ccc(Cl)cc2)n2nnnc2N1` (configuration not stated) is inactive: -2.95%; for `Cc1ccc(S(=O)(=O)c2nc(-c3ccco3)oc2SCc2ccccc2Cl)cc1` it is inactive: -23.9%.
With `CCOC(=O)c1c(NC(=O)c2ccc(S(=O)(=O)N3CCCC(C)C3)cc2)sc2c1CCN(C(C)C)C2` (configuration not stated), the activation was inactive: -1.94%.
For the molecule `CCN1c2cc(C)ccc2-n2cccc2C12CCN(C(=O)Nc1cc(OC)c(OC)c(OC)c1)CC2`, the activation was inactive: -23.6%.
Under `COc1ccc(N2CC(NC(=O)COc3ccccc3C)CC2=O)cc1OC` (configuration not stated) stands inactive: 10%; under `CCOC(=O)c1cc(-c2ccccc2)n(-c2cccc(C(=O)N(CC)c3ccccc3)c2)c1C`, inactive: -23.9%; under `Cc1ccc(-n2c(SCC(=O)Nc3cccc(F)c3)nc3c(oc4ccccc43)c2=O)cc1C`, inactive: -5.47%.
With `Cc1c2cnn(-c3ccccc3)c(=O)c2c(C)n1C(C)C(=O)Nc1ccc(Br)cc1F` (configuration not stated), the activation is inactive: -1.99%.
The figure for `CC(C)c1ccc2oc(-c3cccc(NC(=O)c4ccc5c(c4)OCCO5)c3)nc2c1` is inactive: -2.17%; for `Cc1ccc2oc3c(c(=O)c2c1)C(c1cccc(O)c1)N(Cc1ccccc1Cl)C3=O` (configuration not stated) it is inactive: -18.6%; for `COc1cccc(NC(=O)C2CCCN2S(=O)(=O)c2ccc3c(c2)C(C)(C)C(=O)N3C)c1` (configuration not stated) it is inactive: -5.13%.
`Cc1cc(C)cc(-n2ccn3c(CC(C)(C)CC(=O)O)nnc3c2=O)c1`: the activation is inactive: 9.13%.
The figure for `COc1ccc(N2CCN(C(=O)NCc3noc4ccccc34)CC2)cc1` is inactive: -7.1%; for `CC(C)OP(=O)(CP(=O)(OC(C)C)OC(C)C)OC(C)C` it is inactive: -8.74%.
Under `CC(C)(C)OC(=O)N1CCC(c2c(C(=O)NCc3ccc4c(c3)OCO4)cnn2-c2ccccc2Cl)CC1` stands inactive: -22.7%.
Take `COc1ccc(C(=O)Nc2nnc(S(=O)(=O)N(CC(C)C)c3ccccc3)s2)cc1`: the activation was inactive: -4.1%.
Under `Cc1ccc(Cl)cc1NC(=O)c1ccc2snnc2c1` stands active: 85.3%; under `COc1cc(NC(=O)NCCn2nnc3cc(S(=O)(=O)N(C)C)ccc32)cc(OC)c1`, inactive: 10.7%.
Turning to `Cc1ccc(Cn2c(C(=O)O)c(CNCc3cccs3)c3ccc(C)cc32)cc1`, the activation is active: 111%.
As for `COc1ccc(NC(=O)c2ccc3c(c2)nnn3C2CCCC2)cc1Cl`, the activation is inactive: -0.977%.
Under `CC1=C(C(N)=O)C(c2ccc(F)cc2)n2nc(-c3ccc(N(C)C)cc3)nc2N1` (configuration not stated) stands inactive: -8.45%; under `CCN(C(=O)c1cc(S(=O)(=O)N2CCc3ccccc32)cn1C)c1cccc(C)c1`, inactive: -26.3%; under `CNS(=O)(=O)c1cn(CC(=O)Nc2ccc(C)c(N(C)C)c2)cc1S(=O)(=O)NC`, inactive: -4.91%.
For `Cc1ccc(-c2nn(CC(=O)NC3CCCCC3)c3c2cnc2ccccc23)cc1`, the activation is inactive: -11.2%.
Under `Cc1ccc2c(=O)c(C(=O)c3ccc(F)cc3)cn(CC(=O)NCc3ccccc3Cl)c2n1` stands inactive: 0.291%; under `CCc1c(C(=O)NCCc2ccc(N3CCCCC3)cc2)[nH]c2ccc(Cl)cc12`, inactive: -15.3%; under `Oc1ccc(C(O)CNCCCCCCNCC(O)c2ccc(O)c(O)c2)cc1O` (configuration not stated), inactive: 5.4%.
`CCN(CCCNC(=O)c1nn(-c2ccc(OC)c(Cl)c2)c(=O)c2c1c1ccccc1n2C)c1cccc(C)c1`: the activation was inactive: -8.95%.
Under `CCOC(=O)c1ccc(NS(=O)(=O)c2cc(Br)cc3c2N(C(C)=O)C(C)C3)cc1` (configuration not stated) stands inactive: -3.78%.
The figure for `CCOC(=O)C(=O)Nc1c(C(=O)Nc2cccc(F)c2)oc2ccccc12` is inactive: 15.3%; for `COc1ccccc1N1CCN(c2nc3c(S(=O)(=O)c4ccc(C)c(C)c4)nnn3c3ccc(Cl)cc23)CC1` it is inactive: 3.83%; for `Cc1cccc(-n2ccnc2SCC(=O)Nc2nc3ccccc3s2)c1` it is inactive: -0.342%.
In the case of `Cc1cc2[nH]c(=O)c(=O)[nH]c2cc1S(=O)(=O)N1CCN(c2cccc(C)c2C)CC1`, the activation is inactive: -1.43%.
Turning to `Cc1ccc(Cn2c(CNS(=O)(=O)c3ccc(Cl)s3)nc3cccnc32)cc1`, the activation was inactive: -25.1%.
In the case of `Cc1cccc(-c2nc(SCC(=O)NCc3ccco3)c3c(=O)n(C)c(=O)n(C)c3n2)c1`, the activation is inactive: -4.71%.
`COc1ccc(CNC(=O)c2cc(-c3ccc(C)c(C)c3)n[nH]2)cc1`: the activation is inactive: 18.8%.
Under `CCc1c(C)sc(NC(=O)C2c3ccccc3Oc3ccccc32)c1C(=O)OC(C)C` stands inactive: -1.23%.
As for `CCc1ccccc1Nc1cc(C(=O)NC2CCC(C)CC2)c2ccccc2n1` (configuration not stated), the activation was inactive: -0.201%.
For the molecule `CCOC(=O)c1cccc(NC(=O)C2CCCN(c3nnc(C)c4c(C)n(-c5ccccc5)nc34)C2)c1` (configuration not stated), the activation was inactive: 6.92%.
On to `O=C(Nc1cc(Cl)cc(Cl)c1)c1cc(S(=O)(=O)N2CCc3ccccc3C2)ccc1F`, for which the activation was inactive: -21.5%.
The figure for `COc1ccc(C(=O)Nc2c(C(=O)c3ccccc3)oc3ccccc23)cc1` is inactive: -6.03%.
As for `COc1ccc(OC)c(C2C(C(=O)Nc3ccccc3OC)=C(C)Nc3c(C(=O)Nc4ccc(F)cc4)cnn32)c1` (configuration not stated), the activation is inactive: -22.5%.
The figure for `Cn1c(=O)c(=O)n(C)c2cc(N3CCOCC3)c(NS(=O)(=O)c3ccc(F)c(Cl)c3)cc21` is inactive: -34.1%.
For `Cc1ccc(-c2nnc3ccccc3c2C(=O)Nc2cccc(Cl)c2)cc1`, the activation was inactive: -9.41%.
As for `COc1ccc(NC(=O)c2cc3cc(C)ccc3n2C)cc1`, the activation was inactive: 1.78%.
On to `COc1ccc(C)cc1N(C)C(=O)c1c(C)oc2ncnc(N3CCOCC3)c12`, for which the activation is inactive: -17%.
Regarding `COc1cccc(NC(=O)CN(C)S(=O)(=O)c2ccc3nc(C)sc3c2)c1`, the activation is inactive: -4.06%.
Consider `CN(c1ccc(Cl)cc1)S(=O)(=O)c1nnc(NC(=O)C2CCCCC2)s1`, for which the activation is inactive: -7.67%.
The figure for `COc1cc(C(=O)Oc2c(Sc3ccc(C)cc3)c(C)nn2-c2ccccc2)cc(OC)c1OC` is inactive: -8.21%; for `CCNC(=O)c1cnc2sc(N3CCCCCC3)nn2c1=O` it is inactive: 2.83%; for `COC(=O)c1c(C)sc(-c2c(-c3ccc4c(c3)OCCO4)[nH]c3c2c(=O)n(C)c(=O)n3C)c1O` it is inactive: -21%.
The figure for `CCOc1ccccc1NC(=O)c1c(NC(=O)c2ccccc2C)sc2c1CCC(C)C2` (configuration not stated) is inactive: -28.9%; for `COC(=O)c1n[nH]n(-c2ccccc2)c1=O` it is inactive: -9.54%.
Under `Nc1nnc(SCC(=O)Nc2ccccc2C(F)(F)F)s1` stands inactive: -13%; under `O=C(NCCc1ccc(Cl)cc1)c1ccc(CS(=O)Cc2cccc(Cl)c2)o1` (configuration not stated), inactive: 4.76%; under `CCC(C)NC(=O)c1cnn(-c2ccc(Cl)cc2)c1C1CCN(C(=O)OC(C)(C)C)CC1` (configuration not stated), inactive: -9.11%.
Consider `Cc1cccc(NC(=O)C2CCCN(S(=O)(=O)c3cnc[nH]3)C2)c1C` (configuration not stated), for which the activation is inactive: -2.23%.
In the case of `Cc1ccc2c(c1)cc(C(=O)Nc1ccc(F)cc1F)n2C`, the activation was inactive: 1.01%.
Take `CN(C1CCCCC1)S(=O)(=O)c1ccc2c(c1)c(=O)c(C(=O)NCCc1ccccc1)cn2C`: the activation is inactive: -20.3%.
Turning to `Cc1ccn2c(Nc3ccc4c(c3)OCCO4)c(-c3ccc(Cl)s3)nc2c1`, the activation is inactive: -27.7%.
Under `Cc1oc(-c2ccc(C(=O)Nc3cc(F)ccc3F)cc2)nc1COc1ccccc1` stands inactive: 26.5%; under `Cn1c(=O)c2cc(C(=O)N3CCN(c4ccc(Cl)cc4)CC3)sc2c2ccccc21`, inactive: 12.8%.
The figure for `CCOC(=O)c1cc(NC(=O)c2ccc(F)cc2)c(=O)n2c1oc1ccccc12` is inactive: -0.147%.
Turning to `Cc1ccc(C(=O)N(Cc2ccc(N(C)C)cc2)Cc2ccco2)cc1`, the activation is inactive: -23.7%.
The figure for `O=C(Nc1cccc(Cl)c1Cl)c1ccc2c(c1)N(Cc1cccc(Cl)c1)C(=O)c1ccccc1S2(=O)=O` is inactive: -30.6%; for `Cc1nc2nc(NCc3cccc(Br)c3)[nH]n2c(=O)c1Cc1ccccc1` it is inactive: 2.22%.
Under `COc1cc2ccccc2cc1C(=O)Nc1cccc(-c2nc3cc(C)c(C)cc3o2)c1C` stands inactive: -7.95%.
Under `COc1ccc2oc(=O)c(C(=O)NCCc3c(C)[nH]c4c(Cl)cccc34)cc2c1` stands inactive: -2.94%.
As for `CCc1ccccc1NC(=O)N1CCN(c2cc(-c3noc(C)n3)ccc2C)CC1`, the activation is inactive: 8.94%.
Take `O=S(=O)(Nc1ccc(Cl)cc1)c1ccc(NS(=O)(=O)c2ccc3c(c2)OCCO3)cc1`: the activation was inactive: 23.9%.
In the case of `Cc1ccc(CN(C(=O)COc2cccc([N+](=O)[O-])c2)c2ccccn2)o1`, the activation is inactive: -1.21%.
For the molecule `CCOC(=O)c1cccc(NC(=O)C(CC(C)C)N2Cc3ccccc3C2=O)c1` (configuration not stated), the activation is inactive: -32.5%.
Consider `Cn1nnnc1SCCNCc1ccc(F)cc1`, for which the activation was inactive: -5.49%.
Turning to `CCC(=O)N1CCc2cc(Br)cc(S(=O)(=O)N3CCCC(C(=O)Nc4ccc(OC)c(Cl)c4)C3)c21` (configuration not stated), the activation is inactive: -3.97%.
The figure for `COc1ccc(OC)c(CNC(=O)CCCn2ccc3cc(S(=O)(=O)N4CCCC4)ccc32)c1` is inactive: -13.1%; for `COc1cc(-c2noc(-c3ccc(NCc4cccnc4)c([N+](=O)[O-])c3)n2)cc(OC)c1OC` it is inactive: 15.2%.
